Results on 16 variants are retold here after the supplement of paper PMC7125110.

Sequences and labels used below:
B1: glmS ribozyme (parent)
chain: AUAAAAGCGCCAGAACUACAGAAAUGUAGUUGACGAGGAGGAGGUUUAUCGAAUUUUCGGCGGAUGCCUCCAAA

Common to all, as to conditions: with glucosamine-6-phosphate
Data set [1] covers variants of B1. Briefly: self-cleavage kobs at 640 uM GlcN6P; higher = faster cleavage; RNA array. A digest of the protocol:
(§1)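 kobs was derived by fitting per-tile medians to one- or two-exponential decays after normalising signals to baseline and to non-cleaving reference variants. Those signals came from barcoded ribozyme variants transcribed in situ by E. coli RNA polymerase on sequenced MiSeq chips, followed through a hybridised Cy3 probe at 37 °C and imaged over ~14 h. Glucosamine-6-phosphate (40 μM to 10 mM) in HEPES/KCl/Mg(OAc)2 buffer was flowed in. Weighted Michaelis–Menten fits across concentrations then gave kcat and KM.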

In data set [2] the parent is B1. Briefly: self-cleavage kobs at 2500 uM GlcN6P; higher = faster cleavage; RNA array. A digest of the protocol: as §1
Data set [3] covers variants of B1. Briefly: self-cleavage kobs at 160 uM GlcN6P; higher = faster cleavage; RNA array. A digest of the protocol: as §1
Variants of B1 are the subject of data set [4]. Briefly: self-cleavage kobs at 10000 uM GlcN6P; higher = faster cleavage; RNA array. The gist of the method:
as §1

± gives the standard error. Variants at the floor of the assay are shown more often than the library holds them.

AUAAAAGCCCGAGAGCUACAGAAAUGUAGUUGACGAGUAGGAGGUUUAUCGAAUUUUCGGCGGAUGCCUCCAAA: in the data set with glucosamine-6-phosphate [1], the “self-cleavage kobs at 640 uM GlcN6P” value is less than 1e-05 s⁻¹.
For the variant AUAAAAGCCCCAGAACUACAGAAAUGUAGUUGACGAGGAGGAGGUUUAUCGAAUUUUCGGCGUAUACAUCAAAA, the “self-cleavage kobs at 640 uM GlcN6P” value with glucosamine-6-phosphate [1] is less than 1e-05 s⁻¹. For the same variant, the “self-cleavage kobs at 2500 uM GlcN6P” value with glucosamine-6-phosphate [2] was less than 1e-05 s⁻¹.
On to AUAAAAGCCCCAGAACUACAGAAAUGUAGUUGACGAGGCGGAGGUUUAUCGAAUUUUCGGCGGAUGCCUCCAAA, for which, in the data set with glucosamine-6-phosphate [1], the “self-cleavage kobs at 640 uM GlcN6P” value is less than 1e-05 s⁻¹. The “self-cleavage kobs at 160 uM GlcN6P” value with glucosamine-6-phosphate [3] is less than 1e-05 s⁻¹. Besides, the “self-cleavage kobs at 2500 uM GlcN6P” value in the data set with glucosamine-6-phosphate [2] was less than 1e-05 s⁻¹. The “self-cleavage kobs at 10000 uM GlcN6P” value with glucosamine-6-phosphate [4] is less than 1e-05 s⁻¹.
With AUAAAAGCCCCAGAACUACAGAAAUGUAGUUUACGAGGAGGAGGGUUAUCGAAUUUUCGGCGGGUGCCUCCAAA, the “self-cleavage kobs at 640 uM GlcN6P” value in the data set with glucosamine-6-phosphate [1] was less than 1e-05 s⁻¹.
For AUAAAAGCCCCAGAACUACAGAAAUGUAGUUGACGAGGAGGAGGUUUAUUGAAUUUUCGGCGGAUGCCUGCAAA, the “self-cleavage kobs at 640 uM GlcN6P” value with glucosamine-6-phosphate [1] is less than 1e-05 s⁻¹.
Still for that read-out and setting: next, AUAAAAGCCCCAGAACUACAGAAAUGUAGUUGACGAGGAGGAGGUUUAUGGAAUUUUCGCCGGAUGCCUACAAA: 0.000151 ± 4.9e-05 s⁻¹.
On to AUAAAAGCCCCAGAACUACAGAAAUGUAGUUGACGAGGAGGAGGUUUAUCGAAUUUUCGGCGGAAGCGUCCAAA, for which, in the data set with glucosamine-6-phosphate [1], the “self-cleavage kobs at 640 uM GlcN6P” value was 0.000522 ± 0.00017 s⁻¹. The “self-cleavage kobs at 10000 uM GlcN6P” value in the data set with glucosamine-6-phosphate [4] was determined as 6.3e-05 ± 2.2e-05 s⁻¹.
Consider AUAAAAGCCCUACAACUACAGAAAUGUAGUUGACGCGGAGGAGCUUUAUCGAAUUUUCGGCGGAUGCCUCCAAA, for which, in the data set with glucosamine-6-phosphate [1], the “self-cleavage kobs at 640 uM GlcN6P” value is less than 1e-05 s⁻¹. Further, the “self-cleavage kobs at 160 uM GlcN6P” value with glucosamine-6-phosphate [3] is less than 1e-05 s⁻¹. Moreover, the “self-cleavage kobs at 2500 uM GlcN6P” value with glucosamine-6-phosphate [2] is less than 1e-05 s⁻¹.
Consider AUAAAAGCCCCAGAACUACAGAAAUGUAGUUGACGAUGAGGAGGUUUAUCGAAUUUUCGGCGGCUGCCUCCAAA, for which the “self-cleavage kobs at 640 uM GlcN6P” value in the data set with glucosamine-6-phosphate [1] was less than 1e-05 s⁻¹. For the same variant, in the data set with glucosamine-6-phosphate [2], the “self-cleavage kobs at 2500 uM GlcN6P” value was less than 1e-05 s⁻¹.
On to AUAAAAGCCCCAGAACUACAGAAAUGUAGUUGACGCGGAGGAGGUUUAUCGAAUUUUCGGCGGAUGCCUCCAAA, for which, in the data set with glucosamine-6-phosphate [1], the “self-cleavage kobs at 640 uM GlcN6P” value is less than 1e-05 s⁻¹. In the data set with glucosamine-6-phosphate [3], the “self-cleavage kobs at 160 uM GlcN6P” value was less than 1e-05 s⁻¹. In the data set with glucosamine-6-phosphate [2], the “self-cleavage kobs at 2500 uM GlcN6P” value is less than 1e-05 s⁻¹. The “self-cleavage kobs at 10000 uM GlcN6P” value in the data set with glucosamine-6-phosphate [4] was less than 1e-05 s⁻¹.
For AUAAAAGCCCCAGAACUACAGAAAUGUAGUUGACGAGGAGGUGGUUUAUCGAAUUUUCGGCGUAUGCGUCCAAA, the “self-cleavage kobs at 640 uM GlcN6P” value with glucosamine-6-phosphate [1] was less than 1e-05 s⁻¹. Also, the “self-cleavage kobs at 2500 uM GlcN6P” value with glucosamine-6-phosphate [2] was less than 1e-05 s⁻¹.
Consider AUAAAAGCCCCAGAACUACAGAAAUGUAGUUGACGAGGAGGAGGUUCAUCGAAUUUUCGGCGGAUGCCUCCAAA, for which, in the data set with glucosamine-6-phosphate [1], the “self-cleavage kobs at 640 uM GlcN6P” value is less than 1e-05 s⁻¹. Moreover, the “self-cleavage kobs at 2500 uM GlcN6P” value in the data set with glucosamine-6-phosphate [2] is less than 1e-05 s⁻¹.
Regarding AUAAAAGCUCCAGAUCUACAGAAAUGUAGUUGACGAGGAGGAGGUUUAUCGAAUUUUCGGCAGAGGGCUCCAAA, the “self-cleavage kobs at 640 uM GlcN6P” value with glucosamine-6-phosphate [1] is less than 1e-05 s⁻¹. In the data set with glucosamine-6-phosphate [2], the “self-cleavage kobs at 2500 uM GlcN6P” value was less than 1e-05 s⁻¹.
With AUAAAAGCCCCAGAACUACAGAAAUGUAGUUGACGAGGAGGAGGUGUAUCGAAUUUUCGGCGGAUGCCUCCAAA, the “self-cleavage kobs at 640 uM GlcN6P” value with glucosamine-6-phosphate [1] was less than 1e-05 s⁻¹. The “self-cleavage kobs at 160 uM GlcN6P” value with glucosamine-6-phosphate [3] was less than 1e-05 s⁻¹. The “self-cleavage kobs at 10000 uM GlcN6P” value with glucosamine-6-phosphate [4] was less than 1e-05 s⁻¹.
For AUAAAAGCCCCAGAACUACAGAAAUGUAGUUGACGAGGAGGAGGUUUAUCGAAUUUUUCGCGGAUGCCUCCAAA, in the data set with glucosamine-6-phosphate [1], the “self-cleavage kobs at 640 uM GlcN6P” value is less than 1e-05 s⁻¹. For the same variant, in the data set with glucosamine-6-phosphate [3], the “self-cleavage kobs at 160 uM GlcN6P” value is less than 1e-05 s⁻¹. Further, in the data set with glucosamine-6-phosphate [2], the “self-cleavage kobs at 2500 uM GlcN6P” value was less than 1e-05 s⁻¹.
Regarding AUAAAAGCCCCAGAAUUACAGAAAUGUAGUUGACGAGGAGGAGGUUUAUCGAAUUUUCGGCGGAUGCCUCCAAA, the “self-cleavage kobs at 640 uM GlcN6P” value with glucosamine-6-phosphate [1] was less than 1e-05 s⁻¹. Also, in the data set with glucosamine-6-phosphate [3], the “self-cleavage kobs at 160 uM GlcN6P” value is less than 1e-05 s⁻¹. In the data set with glucosamine-6-phosphate [2], the “self-cleavage kobs at 2500 uM GlcN6P” value was less than 1e-05 s⁻¹. For the same variant, the “self-cleavage kobs at 10000 uM GlcN6P” value in the data set with glucosamine-6-phosphate [4] was less than 1e-05 s⁻¹.
